Measured values reported in PubChem BioAssay AID493208 (National Center for Advancing Translational Sciences (NCATS), 2011).
The campaign covered roughly 44,000 compounds. About 340 (0.77%) were called active. Roughly 5% stayed inconclusive and do not appear here. Calls come from the whole dose curve; as a rule, active = well fitted inhibition curve with a large enough effect; inconclusive = small, poorly fitted or top-dose-only effect; inactive = flat fitted curve, though single readings scatter. Some of the results follow.

Assay: Acumen qHTS Assay for Inhibitors of the mTORC1 Signaling Pathway in MEF (Tsc2-/-, p53-/-) Cells: Sytravon;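 note: plate controls were DMSO for no effect and rapamycin for full effect; nearly all actives have a fitted effect of over 50% in size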
Conditions: phospho-rpS6 immunofluorescence/PI, 24 h; series mostly up to 38.3 µM; activity change, negative = inhibition: at the top concentration
Source text: NIH Molecular Libraries Probe Production Centers Network [MLPCN] NIH Chemical Genomics Center [NCGC] MLPCN Grant: NS059428-01 Assay Submitter (PI): Blenis, John; Hoffman, Greg; Harvard University NCGC Assay Overview: The mammalian target of rapamycin (mTOR) is an intracellular serine/threonine kinase Aberrant regulation of mTOR signaling plays a causative role in a number of human diseases, including cancer, benign tumors such as lymphangioleiomyomatosis (LAM) and Tuberous Sclerosis Complex (TSC), and metabolic diseases such as diabetes and obesity. This project aims to identify inhibitors of ribosomal protein S6 (rpS6) phosphorylation. The phosphorylation of rpS6 is a key event downstream of mTOR activation. The assay uses a phospho-specific antibody of phospho-rpS6 to detect inhibitors of mTOR activation. Mutations in the Tsc1 and Tsc2 genes are the underlying genetic lesions responsible for TSC, causing constitutive activation of the mTORC1 pathway and leading to profound effects on cell metabolism. Aberrant metabolism in cancer has recently received significant attention as a target to develop therapeutic agents in the treatment of cancer.1 As Tsc2-/- cells have lost the ability to respond to energy and growth factor deprivation, these cells are unable to properly down regulate cellular biosynthetic processes in response to metabolic stress, and are thus extremely sensitive to glucose deprivation-induced death.2 A central goal of this project is to explore the unique cell survival and metabolic properties of cells with Tsc1 or Tsc2 by screening for compounds that selectively target the Tsc2-/- MEFs by screening both Tsc2-/- and WT MEF cell lines. We hope to better understand these aspects of TSC physiology in order to exploit them for therapeutic benefit.
NCGC Acumen Assay Protocol Summary: For quantitative high throughput analysis of mTORC1 signaling, we developed a cell-based assay for immuno-fluorescence based detection of rpS6 phosphorylation on the Acumen Explorer that will be used a platform for the primary small molecule screen. Mouse embryonic fibroblasts (MEFs) are cultured in 1536-well plates using DMEM + 10% FBS. Twenty-four hrs after plating, test compounds (solubilized in DMSO) are delivered and incubated with the cells for 24 hrs at 37 degree Celsius. Following the incubation, media with compound is aspirated and the cells are fixed in 4% paraformaldehyde (PFA) containing PBS + 0.2% TX-100. Next, PFA is aspirated, cells are washed two times with PBS plus 0.2% TX-100 and the cells are blocked for 1 hr at room temperature (blocking buffer: LiCOR Blocking Buffer plus 0.2% TX-100). […] Cells are washed two times with PBS plus 0.2% TX-100, and stained with 10 uM propidium iodide (PI) for 20-25 minutes for cell number measurement (1:500 dilution of Hoescht staining is also added for IN Cell imaging). The plates are scanned on the Acumen Explorer laser scanning instrument (TTP Labtech) using the 488nm laser for simultaneous excitation of the Alexa-488 and PI. […] The normalized phospho-S6 staining is calculated as the ratio of the integrated Alexa 488 intensity divided by the integrated PI intensity for the single concentration rapamycin control (7.5 nM) and DMSO columns. […] Inhibition of the pathway is defined based on the normalized phospho-S6 intensity in rapamycin treated cells. Active cells are defined as those with a normalized phospho-S6 staining above this threshold, and each treatment is reported as the % positive cells in the well, where thresholds are defined by selecting wells with the highest and lowest signal and differentiating between the % non-active and % active populations. In addition to the pathway specific phospho-S6 endpoint, the number of PI stained cells from the Acumen is recorded as a measure of cell viability. The primary screen was performed with a MEF cell line in a defined genetic background, Tsc2-/-, p53-/- cell line stably transfected with an empty vector control (Tsc2-/- MEF).

Activity change, negative = inhibition, inactive:
COc1cccc(-c2nc(CS(=O)(=O)CC(=O)Nc3cc(F)ccc3F)c(C)o2)c1 -0.0999%, Cc1ccc(OCC(=O)N(Cc2ccco2)Cc2ccco2)cc1 2.78%, CCS(=O)(=O)c1nc2ccccc2n1CC(=O)Nc1ccccc1C(=O)OC -8.06%, CCc1ccc(C(=O)c2c(N)c(-c3nc(-c4ccc5c(c4)OCO5)cs3)c3ccccn23)cc1 -11.7%, Oc1c(C(c2ccc(Br)cc2)N2CCOCC2)sc2nc(-c3ccco3)nn12 (stereo not given) -2.23%, COc1ccc2nc3sc(C(=O)N4CCN(c5ccccc5)CC4)cc3cc2c1 6.32%, COc1ccc(CCNC(=O)CCn2c(=O)c3ccccc3n(Cc3c(C)cc(C)cc3C)c2=O)cc1OC -8.53%, N#Cc1ccccc1S(=O)(=O)N1CCCC(c2nc3c(nnn3Cc3cccc(Cl)c3)c(=O)[nH]2)C1 (stereo not given) 2.35%, CC(C)CCNC(=O)CN1C(=O)c2cccnc2Oc2ccccc21 0.768%, CN(C)c1ccc(C(CNC(=O)c2ccccc2F)N2CCc3ccccc32)cc1 (stereo not given) 0%, Cc1csc2nc(CCNS(=O)(=O)c3ccccc3)cn12 -0.758%, O=C(NCc1ccco1)c1c[nH]c2ccc(S(=O)(=O)Nc3ccc(F)cc3F)cc2c1=O -1.28%, Cc1nn(-c2ccccc2)c2c1N(CCCC(=O)NCc1ccc(Cl)cc1)C(=O)CS2 -7.73%, CN1CCN(C(=O)c2cnn(-c3cccc(Cl)c3)c2C2CCN(C(=O)OC(C)(C)C)CC2)CC1 7.37%, COc1cccc(CNC(=O)c2ccc3c(c2)N(Cc2ccc(C(F)(F)F)cc2)C(=O)c2ccccc2S3)c1OC -4.35%, COc1ccc(-c2nnc(SCC(=O)NCc3ccccc3)nc2-c2ccc(OC)c(OC)c2)cc1OC -12.1%, Cc1ccc(CN(Cc2ccco2)C(=O)COc2ccc(Cl)cc2Cl)cc1 -9.74%, CCOc1ccccc1CNC(=O)CN(c1ccc(C)cc1)S(=O)(=O)N(C)C -9.55%, CCOc1ccc(NC(=O)Cc2ccc(NC(=O)N3CCCCc4ccccc43)cc2)cc1 -3.72%, CC(C)(C)c1ccc(S(=O)(=O)c2cnc(SCC(=O)Nc3ccc(F)c(Cl)c3)[nH]c2=O)cc1 -2.43%, CCOC(=O)c1cc(-c2ccc(F)cc2)n(CC(=O)NCc2ccc(OC)cc2)c1C 0.485%, COC(=O)c1ccc([C@H]2Nc3ccc(S(=O)(=O)Nc4ccc(C)cc4)cc3[C@H]3C=CC[C@H]32)cc1 1.4%, Brc1ccc(-c2nnc3sc(CN4CCCCC4)cn23)cc1 -19.6%, Cc1ccccc1-c1nnc(CN2CCN(c3cccc(C)c3C)CC2)o1 -6.33%, COc1cccc(NC(=O)CSc2nc3c([nH]c4ccccc43)c(=O)n2-c2ccccc2)c1 -7.13%
